# Reference: the supplement of paper PMC3334620
# Whole data set: some 33,000 sequences, median “E-score (-0.5 to 0.5)” near -0.043, cut for the highest 2% near 0.37. The list shows a part of the results.
# Target: T1, Upc2 (UniProt Q12151)
# T1 sequence: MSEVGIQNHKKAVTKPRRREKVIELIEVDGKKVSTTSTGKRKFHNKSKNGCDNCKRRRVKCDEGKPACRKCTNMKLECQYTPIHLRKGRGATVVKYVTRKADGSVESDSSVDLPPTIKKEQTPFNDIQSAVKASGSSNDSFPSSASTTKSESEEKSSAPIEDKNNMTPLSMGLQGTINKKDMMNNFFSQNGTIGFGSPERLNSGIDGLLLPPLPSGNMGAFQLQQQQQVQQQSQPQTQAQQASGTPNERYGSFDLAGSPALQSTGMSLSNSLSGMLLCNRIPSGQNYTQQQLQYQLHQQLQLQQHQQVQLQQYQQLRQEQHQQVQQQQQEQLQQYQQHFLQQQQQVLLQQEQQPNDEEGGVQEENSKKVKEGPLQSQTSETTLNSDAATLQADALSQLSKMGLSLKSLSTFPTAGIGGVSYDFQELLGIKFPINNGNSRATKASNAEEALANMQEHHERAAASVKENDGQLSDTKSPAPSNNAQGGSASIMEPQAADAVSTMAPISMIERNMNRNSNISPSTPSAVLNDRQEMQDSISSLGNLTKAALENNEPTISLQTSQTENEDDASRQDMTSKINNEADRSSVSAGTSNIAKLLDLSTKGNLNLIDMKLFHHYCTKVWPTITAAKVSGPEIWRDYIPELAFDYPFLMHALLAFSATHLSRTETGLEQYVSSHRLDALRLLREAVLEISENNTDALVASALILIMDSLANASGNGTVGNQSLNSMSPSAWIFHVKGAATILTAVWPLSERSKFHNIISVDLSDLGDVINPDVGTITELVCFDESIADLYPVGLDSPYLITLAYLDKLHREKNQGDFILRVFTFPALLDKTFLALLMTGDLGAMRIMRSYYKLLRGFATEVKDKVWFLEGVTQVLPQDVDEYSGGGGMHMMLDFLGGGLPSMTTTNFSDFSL
# Experiment: PBM E-score (8-mer binding enrichment) (E-score (-0.5 to 0.5)); higher = stronger / more preferred TF binding; most listed sequences are background and not binding sites
# Conditions: protein concentration: 200 nM; construct: GST-full length
# Summary of the method: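 Full-length yeast transcription factors or their DNA-binding domains, GST-tagged and expressed with PURExpress, were applied at about 100-200 nM to universal all-10-mer Agilent arrays. These arrays had been made double-stranded by primer extension on fresh or once-stripped slides. Detection used fluorescent anti-GST, normalisation used masliner, and E-scores for ungapped eight-base words pooled with reverse complements came from the Universal PBM Analysis Suite.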
row,Sequence,PBM E-score
1,AGTTCACA,-0.004
2,TCAATCAA,0.0923
3,CCTTGAAG,-0.25
4,ACCCCATA,-0.106
5,AGAAGGAT,-0.265
6,GCGTTATA,0.0655
7,GACTCCCA,-0.132
8,TACGTGCA,0.208
9,CACATCAA,0.0633
10,GGGTCGTA,0.42
11,GACACGAA,0.0225
12,GAATCAAC,0.214
13,AGCTCTAG,-0.0435
14,CATGGGTC,-0.331
15,GCATGCAC,-0.0917
16,CCGAATCA,0.0182
17,GCCATTAA,-0.127
18,TAGGGGAA,-0.11
19,ACAGTCCC,-0.242
20,GCTCTCCC,-0.0252
21,AAAATATT,0.00506
22,AGTGGACC,-0.372
23,AATGGGGC,-0.24
24,ATGTCCGA,0.104
25,CGATTTAA,0.0422

row,Sequence,PBM E-score
1,CATTAAAC,0.206
2,CTGTAACC,0.0416
3,CAGGGATG,-0.184
4,CATAAATC,-0.0503
5,GATTTGGA,-0.112
6,GAGTAACA,0.0415
7,ATTATGCA,-0.0455
8,AAAGCATG,-0.169
9,CCGGGAAA,0.0622
10,GGGAGGGA,0.00443
11,ACGGAAGC,0.142
12,CACCCTGC,-0.264
13,GCATTCCC,-0.103
14,TACCTCAA,0.0137
15,AAGGGTCA,-0.287
16,ATCTTCTA,0.0247
17,ACATACCC,-0.00987
18,GCAAAGGA,0.0614
19,ATCAACTA,0.089
20,ATATTCCC,-0.105
21,GAATTGCC,-0.0143
22,AAAGCAGA,0.00876
23,GACCAACC,-0.0496
24,CAAGAGGA,-0.245
25,CGCCAGCG,-0.221

row,Sequence,PBM E-score
1,TTGTGAAA,-0.189
2,ACATGATC,-0.176
3,AAGGTTTA,-0.0703
4,CTGGGCTA,-0.148
5,CTATTTCA,-0.126
6,CGCCAGGA,-0.213
7,AGCGACGG,0.255
8,ACGAGCAG,0.313
9,AAATCATA,0.231
10,AAGCGAAC,0.294
11,CGCGCTCA,-0.0616
12,ATACGACC,0.474
13,CGGGCGAA,-0.166
14,GGGCGAAC,-0.0536
15,GTCGGTTA,0.337
16,ACCGTCGT,0.394
17,CATCTTCC,-0.125
18,ACATTGGC,-0.139
19,CACCGGAC,0.0115
20,AACCATGA,-0.0289
21,CAGGTTAC,-0.149
22,CGGAGAGA,0.0808
23,CAGGATGG,-0.141
24,TAGCGATA,0.0495
25,AGGCGAAA,-0.103

row,Sequence,PBM E-score
1,GACGGGAC,-0.0797
2,GAATCCAA,-0.195
3,AAGGAAAC,-0.0126
4,ACCCAGTG,0.00501
5,ACACACTA,-0.0529
6,AATGCATT,-0.146
7,ATCCAACG,-0.165
8,AAGCCCAA,-0.108
9,CACAGAGA,-0.0832
10,CAATCTAG,-0.043
11,CAACCGGA,0.00499
12,CGGTAAAA,0.206
13,GACCTGCC,-0.116
14,CACTAACG,0.2
15,CCTTCCTC,-0.157
16,GCGTGACC,-0.101
17,GAATATTC,0.0333
18,ACTCGGGA,-0.0171
19,CGATCCGC,0.066
20,AGTATTAC,0.0661
21,AACGTGGC,0.111
22,CCTGGCTA,0.00786
23,CACAAGGC,-0.308
24,CAGGAGTC,-0.207
25,CCCTCAGG,-0.133

row,Sequence,PBM E-score
1,ATGATGTC,-0.175
2,ACTGAAAT,-0.0489
3,AGTTACTG,-0.223
4,AGAAATGG,-0.159
5,CACATGTG,0.00975
6,CATCAACA,-0.00151
7,AGACTGGA,-0.172
8,AATGTCCG,0.101
9,TGAGCTCA,0.043
10,GAATGTCC,-0.167
11,AAGGATCA,-0.181
12,ATGAAGAC,-0.22
13,AACTTTAA,-0.00093
14,TAGCTGGA,-0.18
15,GAAAGCCA,-0.231
16,CTGTCACA,-0.0745
17,AAAAATTA,0.0373
18,ATGCGTGC,0.03
19,ATGAGTTG,-0.0822
20,CGTACGCC,0.312
21,GGGAGCTA,-0.162
22,ATAAGGCA,-0.107
23,CTCGTGGA,0.0655
24,GAGCGTGA,-0.108
25,CGAAAAGA,0.0982

row,Sequence,PBM E-score
1,ATGTAGAA,-0.229
2,AAATCGCC,-0.149
3,CAATCAAG,-0.0362
4,CACAGTTA,-0.105
5,ACGATACC,0.349
6,CGTGTCTC,0.0266
7,AAGCAGAT,-0.211
8,CGTACACA,0.418
9,TGCGATAA,0.0773
10,ATGTCACC,-0.0774
11,TGCAAACA,-0.0888
12,ACTAGGCG,-0.0496
13,CGAATCGA,0.16
14,CGTTGCTC,0.212
15,ATCCCGCG,0.0498
16,GTTGTAGA,0.106
17,ATGCCCGG,-0.125
18,AAAATCCT,0.0605
19,CCTGGATA,-0.0211
20,CCGCCGCG,0.0882
21,ATCCTTTG,-0.0839
22,ACCTTTTA,0.118
23,GATCGGCC,-0.0313
24,GTATGCAC,0.103
25,CACTTTTC,-0.0559

row,Sequence,PBM E-score
1,ACATCGCG,0.0364
2,TAAGTTAA,-0.0413
3,GATTGTGC,-0.0348
4,CCTGCCGC,-0.0126
5,TCGGTAAA,0.288
6,ACCAGCTC,-0.0873
7,CGTCAACG,0.169
8,AGTCTCCG,-0.0419
9,GCTGCCAC,-0.242
10,AAGGACAT,0.0482
11,GAAAAATA,0.0817
12,ACTGACGA,0.0719
13,AGATACTC,-0.065
14,AACACTCA,0.0647
15,AGGAGCCA,-0.101
16,TGGTGGAA,-0.00349
17,ACAGGCCG,-0.129
18,GAGTACTC,-0.0593
19,GCAGTGTA,0.115
20,ACCAAAGT,-0.0883
21,AACCAGTG,-0.154
22,CGAAGCAG,0.00955
